This note sets out measurements from patent publication US12570690 (NAVIGO PROTEINS, dated 2026).

Changes are numbered by the printed parent chain.

B1: Ig binding protein cs26, CID 203447 (parent, cs26 43C) (designed binder)
chain: IAAQHDKDQQAAFYEILHLPNLTEEQRNAFIQSLRDDPSVSLCILAEAKKLNDAQAPK
notes: Parent molecule
B2: Ig binding protein CID 203550, cs26 variant D8I (designed binder)
chain: B1 chain with D8I
notes: also called cs26 8I; variant 8I
B3: Ig binding protein CID 203704, cs26 variant N28H (designed binder)
chain: B1 chain with N28H
notes: also called cs26 28H
B4: Ig binding protein CID 203524, cs26 variant D6L (designed binder)
chain: B1 chain with D6L
notes: also called variant 6L

Sequence of Natalizumab (IgG4) (VH, as listed by the source, chain 1 of 2): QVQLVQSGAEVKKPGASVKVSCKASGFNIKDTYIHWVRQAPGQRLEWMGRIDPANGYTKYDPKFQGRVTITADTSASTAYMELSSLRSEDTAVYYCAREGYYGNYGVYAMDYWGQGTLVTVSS
Sequence of Natalizumab (IgG4) (VL, as listed by the source, chain 2 of 2): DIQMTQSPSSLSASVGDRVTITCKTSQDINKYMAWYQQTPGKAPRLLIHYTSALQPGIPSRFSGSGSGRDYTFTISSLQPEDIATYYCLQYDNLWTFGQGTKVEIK

The first assay has as its target Natalizumab (IgG4). Nature of the assay: SPR, Biacore 3000, 25 C, Langmuir 1:1. (Surface plasmon resonance follows binding to a sensor surface in real time, without labels.)
In turn, B1 had a Kd of 2.7 nM.
Regarding B2, the Kd came out at 2.4 nM.
Molecule B3 came in with a Kd of 20 nM.
Still for that read-out and setting: next, B4: 4 nM.

The target in a further assay is T1, Panitumab (IgG2).
T1 construct: Used as the hIgG2 target in SPR; also called hIgG2
Nature of the assay: SPR, Biacore 3000, 25 C, Langmuir 1:1.
Turning to B1, the Kd was 23.2 nM.
B2: the dissociation constant (Kd) stood at 20.6 nM.
For the molecule B3, binding was characterised by a dissociation constant (Kd) of 107 nM.
With B4, the Kd amounted to 110 nM.

The target of a further assay is T2, Polyclonal human IgG Gammanorm (human).
T2 construct: Polyclonal mixture of human IgG, bought; also called hIgG; polyclonal hIgG
Nature of the assay: dynamic binding capacity, ligand coupled to Praesto Pure85 resin, polyclonal hIgG load.
As for B1, the “DBC10% at 6 min residence time” value stood at 54.9 mg/mL.
For B2, the “DBC10% at 6 min residence time” value amounted to 56.6 mg/mL.
Regarding B3, the “DBC10% at 6 min residence time” value was 56 mg/mL.

As usually defined, the Kd is the free concentration of one partner at which half of the binding sites on the other are occupied at equilibrium, for simple one-to-one binding.
